Experimental data from the antibiotic and cytotoxicity screens of Wong et al. (2023).
Some of the results follow.

System: HepG2
Assay: cytotoxicity call (relative viability < 0.9)
Conditions: 10 µM

Row | Compound | cytotoxicity call
1 | CN(CC[C@@H](N)CC(=O)N[C@H]1C=C[C@H](n2ccc(N)nc2=O)O[C@@H]1C(=O)O)C(=N)N | inactive
2 | Cn1cc(N2C[C@@H]3CNC[C@@H]3C2=O)cn1 | inactive
3 | CC(O)(CS(=O)(=O)c1ccc(F)cc1)C(=O)Nc1ccc(C#N)c(C(F)(F)F)c1 (centres undefined) | inactive
4 | COC(=O)C1=CCCN(C)C1 | inactive
5 | NC1Cc2ccccc2C1 | inactive
6 | C[C@]12CC[C@](C)(O1)[C@H](C(=O)O)[C@@H]2C(=O)O | inactive
7 | C1CC2(CCN1)OCCO2 | inactive
8 | CN1CCC2(C)c3cc(O)ccc3N(C)C12.O=C(O)C=CC(=O)O (centres undefined) | active
9 | [N-]=[N+]=NCC(=O)Nc1ccon1 | inactive
10 | C[C@@H]1CN([C@H](C)CO)C(=O)c2c(c3ccccc3n2C)-c2ccccc2CO[C@H]1CN(C)C(=O)Oc1ccccc1 | inactive
11 | CCCCCCCCCc1ccc(O)cc1 | active
12 | N=C(N)NOCCC(N)C(=O)O (centres undefined) | inactive
13 | OCC1CCCN2CCCCC12 (centres undefined) | inactive
14 | COC(=O)[C@@]1(Cc2ccccc2CN=[N+]=[N-])N=C(c2ccc(OCCCO)cc2)O[C@H]1c1ccccc1N=[N+]=[N-] | inactive
15 | Cl.NCCc1c[nH]c2ccc(O)cc12 | inactive
16 | C=CCOC(Cn1ccnc1)c1ccc(Cl)cc1Cl.O=S(=O)(O)O (centres undefined) | inactive
17 | C[C@@H]1CN([C@H](C)CO)C(=O)CCCn2cc(nn2)CO[C@@H]1CN(C)C(=O)Oc1cccc2ccccc12 | inactive
18 | O=c1cccc2n1CC1CNCC2C1 (centres undefined) | inactive
19 | CN(C)C(=O)CCC(=O)N1C[C@H]2C[C@@H]1CN2 | inactive
20 | C1C[C@@H]2C[C@@H]2N1 | inactive

Row | Compound | cytotoxicity call
21 | O=C(O)CC[C@@H](CP(=O)(O)O)C(=O)O | inactive
22 | CS(=N)(=O)CC[C@H](N)C(=O)O (some centres undefined) | inactive
23 | C[C@@H]1O[C@@H](OC(=O)Cc2ccccc2)[C@H](O)[C@H](O)[C@H]1O | inactive
24 | O=C1C2CCN(CC2)C1(CO)CO | inactive
25 | O=C(O)Cc1cccnc1C(=O)O | inactive
26 | COc1ccc(N=[N+]=[N-])cc1 | inactive
27 | COP(=S)(OC)Oc1cc(Cl)c(Cl)cc1Cl | inactive
28 | O=C1O[C@H]2CN[C@@H]1C2 | inactive
29 | CC12CCC3C(CC=C4CC(O)CCC43C)C1CCC2=O (centres undefined) | inactive
30 | N#[N+]CC(=O)CC[C@H](N)C(=O)O | inactive
31 | COc1ccc2c3c([nH]c2c1)C(C)=NCC3 | inactive
32 | C1COC2(CCOCC2)CN1 | inactive
33 | N#CN1CCCC1 | inactive
34 | c1ccc(N2CCNCC2)nc1 | inactive
35 | CC1CCC2C(C)C(=O)OC3OC4(C)CCC1C32OO4 (centres undefined) | inactive
36 | Cc1ccc(OC(=O)N(C)C[C@H]2OCc3ccccc3-c3c(n(C)c4ccccc34)C(=O)N([C@@H](C)CO)C[C@H]2C)cc1 | inactive
37 | O=[N+]([O-])c1cc([As](=O)(O)O)ccc1O | inactive
38 | CNCC(O)c1ccc(O)cc1.CNCC(O)c1ccc(O)cc1.O=C(O)C(O)C(O)C(=O)O (centres undefined) | inactive
39 | C[C@H]1CN([C@@H](C)CO)C(=O)c2c(c3ccccc3n2C)-c2ccccc2CO[C@H]1CN(C)C(=O)Oc1ccccc1 | inactive
